Measured values from PubChem BioAssay AID463173 (ICCB-Longwood Screening Facility, Harvard Medical School, 2010).
Among all 52,000 compounds or so, about 4,300 (8.3%) were called active. No stated cut-off is given here; in the data, active means survival mostly below about 52% (no sharp cut-off); inactive means mostly above about 56%. The list shows a part of the results.

What follows are molecules tested on DeltatarO mutant (assay: growth inhibition of S. aureus wild type versus tarO mutant, primary screen, teichoic acid synthesis inhibitors, RN4220, OD600 (AID 463173)). Conditions: OD600, 18 h, stronger effect = lower value, screened at 18.75 µg/mL (by protocol).

| Compound | survival |
| --- | --- |
| Cc1nc2scc(-c3cccs3)c2c(=O)o1 | inactive: 87% |
| CCCCN(CC)CCCNC(=O)c1sc2nc(C)cc(C)c2c1-n1cccc1 | inactive: 113% |
| CCc1ccc(NC(=O)c2ccc3c(O)c(S(=O)(=O)c4ccc(Cl)cc4)c(=O)[nH]c3c2)cc1 | inactive: 75% |
| Cc1ccc(S(=O)(=O)N(CC(O)Cn2c3ccccc3c3ccccc32)c2cccc(C(N)=O)c2)cc1 (stereo unspecified) | active: 38% |
| Cc1ccc(C)c(NC(=O)CN2C(=O)CCc3ccccc32)c1 | inactive: 81% |
| CCN(CC)Cc1nc2ccccc2[nH]1 | inactive: 78% |
| CCOc1ccc(CCNC(=O)Cn2nc(C)n3c(cc4occc43)c2=O)cc1OCC | inactive: 85% |
| Cc1ccccc1C(=O)c1cccn1CC(=O)NCc1ccccc1 | inactive: 103% |
| CCn1c2ccccc2c2nnc(SCC(=O)O)nc21 | inactive: 54% |
| Cc1ccccc1CNC(=O)c1cnc2sc(N3CCOCC3)nn2c1=O | inactive: 68% |
| Cc1ccc(NC(=O)CN(C)S(=O)(=O)c2ccc3c(c2)n(C)c(=O)c(=O)n3C)cc1C | inactive: 87% |
| Cc1ccc(-c2nc3c4ccccc4n(CC(=O)N4CCN(c5ccccc5F)CC4)c(=O)n3n2)cc1 | inactive: 78% |
| Cc1ccc(-n2nnnc2CNC(=O)C(C)(C)C)cc1C | active: 46% |
| O=C(CS(=O)CC(=O)Nc1ccc2c(c1)OCCO2)Nc1ccc(Cl)cc1 (stereo unspecified) | inactive: 95% |
| Cc1nc(SC(C)C(=O)Nc2ccccc2C)cc(-c2ccccc2)n1 (stereo unspecified) | inactive: 60% |
| COc1ccc(CNC(=O)c2cc(-c3ccc(OC)cc3)on2)cc1 | inactive: 210% |
| CC(=O)Nc1ccc(S(=O)(=O)N2CCC(n3c(C(F)(F)F)nc4cccnc43)CC2)cc1 | inactive: 86% |
| Cc1ccc(CCNC(=O)CCCn2nc(C)c3c(C)n(-c4ccccc4)nc3c2=O)cc1 | inactive: 87% |
| COc1cccc(-c2cc(C(=O)Nc3cc(Cl)ccc3O)on2)c1 | inactive: 97% |
| CC(C)Oc1ccc(CNC(=O)c2cc3ccccn3n2)cc1 | inactive: 90% |
| O=C(CCn1c(=O)oc2ccccc21)n1c(=O)oc2ccccc21 | inactive: 108% |
| O=c1c2cc3c(cc2n(Cc2ccc(Cl)cc2)c(=O)n1Cc1nc(-c2ccccc2)no1)OCO3 | inactive: 86% |
| Cc1ccc(-n2c(Cc3ccccc3)nnc2SCc2nc(-c3cccs3)no2)cc1 | inactive: 65% |

| Compound | survival |
| --- | --- |
| Cc1ccc2c(c1)c1c(c(=O)n(-c3cccc(Cl)c3)c(=O)n1CC(=O)Nc1c(C)cccc1C)n2C | inactive: 78% |
| CCOC(=O)c1ccccc1NC(=O)CSc1nc2cn(CC)nc2c(=O)n1Cc1ccc(Cl)cc1 | inactive: 57% |
| CCN(CC)C(=O)n1c(Cc2ccccc2)nc2ccccc21 | inactive: 86% |
| Cc1ccc(CN2CCSc3ccc(C(=O)N4CCN(c5ccccc5)CC4)cc32)cc1 | inactive: 63% |
| O=C(CC1N=C2c3ccccc3N=C(SCc3ccc(Cl)cc3)N2C1=O)NCc1cccs1 (stereo unspecified) | inactive: 75% |
| COc1ccc(N2CCN(C(=O)C3CCN(S(=O)(=O)c4cccs4)CC3)CC2)cc1 | inactive: 118% |
| CC(=O)c1ccc(S(=O)(=O)N2CCn3cccc3C2c2ccc(C)cc2)cc1 (stereo unspecified) | inactive: 73% |
| CCOC(=O)Cn1c(=O)n(CC2CCCO2)c2nc(-c3ccc(C)cc3)nc(C(N)=O)c21 (stereo unspecified) | inactive: 67% |
| CC(C)c1ccc(C2=CC(c3ccc(C(C)C)cc3)n3nnnc3N2)cc1 (stereo unspecified) | inactive: 67% |
| Cc1ccc2nc3c(cc(C(=O)NCC4CCCO4)c(=N)n3C(C)C)c(=O)n2c1 (stereo unspecified) | inactive: 67% |
| COc1ccccc1/C=C/c1nc2ccccc2n1C(C)C | active: 8% |
| COc1ccccc1NC(=O)C(=O)NCC(c1ccc2c(c1)OCO2)N1CCOCC1 (stereo unspecified) | inactive: 75% |
| COc1ccc(Cl)cc1NC(=O)Cc1ccc(NC(=O)N2CCCCc3ccccc32)cc1 | inactive: 71% |
| O=C(Nc1cccc(Cl)c1)c1cnc2sc(N3CCCC3)nn2c1=O | inactive: 85% |
| CN1C(=O)Cc2cc(S(=O)(=O)N3CCN(c4ccccc4F)CC3)ccc21 | inactive: 107% |
| COc1ccc(CNC(=O)Cc2c(C)c3cc4c(C)coc4c(C)c3oc2=O)cc1 | inactive: 72% |
| Cc1ccc(C)c(CN2CCCN(Cc3ccc(F)cc3)S2(=O)=O)c1 | active: -5% |
| Cc1nc(-n2nc(C)c(Cc3ccccc3Cl)c2C)sc1C(=O)Nc1ccccc1F | inactive: 78% |
| Cc1nc(C)c(-c2ccc(SCC(=O)Nc3ccc(Br)cc3)nn2)s1 | inactive: 101% |
| CC(C)(C)C(=O)Nc1ccc2oc(=O)ccc2c1 | inactive: 80% |
| CC(=O)c1cccc(-n2c(=O)c3c4c(sc3n(CC(=O)c3ccccc3)c2=O)CN(C(C)=O)CC4)c1 | inactive: 84% |
| Cc1ccc(C)c(CN2C(=O)c3ccccc3S(=O)(=O)c3ccc(C(=O)N(C)C4CCCCC4)cc32)c1 | inactive: 64% |
| CC1(C)Cc2ccccc2C(=NCC(=O)O)N1 | inactive: 96% |

| Compound | survival |
| --- | --- |
| CC(=O)c1cc2c(cc1N/C(=N/S(=O)(=O)c1ccc(Cl)cc1)c1ccc(F)cc1)OCO2 | inactive: 99% |
| Cc1ccc(OC(=O)c2cccc(S(=O)(=O)N3CCOCC3)c2)c(-n2nc3ccccc3n2)c1 | inactive: 101% |
| CCc1nnc(NC(=O)CSc2nccn2-c2ccc(OC)cc2)s1 | inactive: 116% |
| CSc1ccc(CCNC(=O)c2cnc3c(C)cccn3c2=O)cc1 | inactive: 89% |
| COC(=O)CSc1nnc(C2CCCCC2)n1Cc1ccccc1 | inactive: 116% |
| Cc1ccccc1-c1nc(CN2CCC(C(=O)NCc3ccccc3Cl)CC2)c(C)o1 | inactive: 84% |
| O=S1(=O)C=C(N2CCCC2)c2ccccc21 | inactive: 92% |
| CCOc1ccc(N2CC(NC(=O)CCc3ccccc3)CC2=O)cc1 (stereo unspecified) | inactive: 93% |
| CC(C)(C)c1ccc(NC(=O)C2CCCN(c3cnccn3)C2)cc1 (stereo unspecified) | inactive: 103% |
| CCc1ccccc1NC(=O)Nc1c[nH]c(=O)[nH]c1=O | inactive: 75% |
| Cc1ccc(C)c(N2CCN(C(=O)c3ccc(NC(=O)c4nsc5ccccc45)cc3)CC2)c1 | inactive: 67% |
| Cc1nn(-c2ccccc2)c(OC(=O)C(C)C)c1Sc1ccc(Cl)cc1 | active: 36% |
| Cc1ccc(CNC(=O)CCCCCn2c(=O)[nH]c3ccccc3c2=O)cc1 | inactive: 124% |
| Cc1ccc(/C=C/c2onc(C)c2S(=O)(=O)N2CCC(C(=O)Nc3ccc(C)c(N(C)C)c3)CC2)cc1 | inactive: 100% |
| Cc1ccc(C(=O)NC2CCSC2=O)cc1 (stereo unspecified) | inactive: 100% |
| Cc1c(Cl)cccc1NC(=O)CCN1CCC(C(N)=O)CC1 | inactive: 97% |
| CC1CCCN(CCCNC(=O)c2ccc3c(c2)N(Cc2ccccc2F)C(=O)c2ccccc2S3(=O)=O)C1 (stereo unspecified) | inactive: 179% |
| COc1ccccc1NC(=O)c1cc2c(n(-c3ccc(C)cc3)c1=O)CC(C)(C)CC2=O | active: 45% |
| CCCn1cnc2sc3c(c2c1=O)CCCC3 | inactive: 102% |
| COc1ccc(CNC(=O)CSCc2ccc(C)cc2)c(OC)c1 | inactive: 55% |
| O=C(c1ccc2c(c1)N(Cc1cccc(Cl)c1)C(=O)c1ccccc1S2(=O)=O)N1CCN(Cc2ccccc2)CC1 | inactive: 92% |
| CCc1cc2c(cc3c(=O)n(CC(=O)NC(C)C)nc(CC)n32)s1 | inactive: 75% |
| Cc1ccc(NS(=O)(=O)c2ccc(-c3cc(C)no3)cc2)c(C)c1 | inactive: 103% |

| Compound | survival |
| --- | --- |
| CC1(C)CC(n2c(=O)c3c(n4cnnc24)-c2ccccc2CC32CCCCC2)CCO1 (stereo unspecified) | inactive: 52% |
| CCC1CCCCN1CCCNC(=O)c1sc2nc(C)cc(C)c2c1-n1cccc1 (stereo unspecified) | inactive: 92% |
| CCCN(CCC)CCCNC(=O)c1sc2nc3n(c(=O)c2c1C)CCC3 | inactive: 79% |
| Cc1ccccc1OCCSc1nnc(-c2ccc([N+](=O)[O-])cc2)o1 | inactive: 102% |
| Oc1cccc(-c2nc(-c3cccs3)c(-c3cccs3)[nH]2)c1 | active: 4% |
| COc1cccc(C(c2sc3nc(-c4ccco4)nn3c2O)N2CCC3(CC2)OCCO3)c1 (stereo unspecified) | inactive: 67% |
| CCc1ccc(CNC(=O)c2ccc(-n3c(C)cc4c3CCC(C)C4)cc2)cc1 (stereo unspecified) | inactive: 123% |
| Cc1ccc(S(=O)(=O)Nc2ccc3c(c2)CCCN3C(=O)c2cccs2)cc1C | inactive: 70% |
| COc1cc(Br)c(C2CC(=O)Nc3cc4c(cc32)OCCO4)cc1OC (stereo unspecified) | inactive: 86% |
| CCc1ccc(NC(=O)c2ccc(F)c(S(=O)(=O)N3CCc4ccccc4C3)c2)cc1 | inactive: 79% |
| Cc1cccc(NC(=O)C(Cc2ccccc2)N2Cc3ccccc3C2=O)c1C (stereo unspecified) | inactive: 76% |
| CCc1nn(CC(=O)NCCN(CC(C)C)CC(C)C)c(=O)c2cc3sc(C)cc3n12 | inactive: 68% |
| O=C(CSC1=NC(c2ccco2)CC(C(F)(F)F)N1)NCc1ccc(F)cc1 (stereo unspecified) | inactive: 88% |
| COc1ccc(CNC(=O)Cn2c(=O)n3nc(-c4cccc(F)c4)nc3c3ccccc32)cc1OC | inactive: 82% |
| CCN1CCCC1CNC(=O)Nc1c[nH]c2ccc(C)cc2c1=O (stereo unspecified) | inactive: 102% |
| COc1ccc(CNC(=O)C2=Cc3cccc(OC)c3OC2)cc1OC | inactive: 93% |
| O=C(Nc1ccc(F)cc1F)c1cc(CN2CCOCC2)on1 | inactive: 92% |
| CCc1cc(=O)oc2c(C)c3c(cc12)CN(CCc1ccccc1)CO3 | inactive: 71% |
| COc1ccc(OC)c(NS(=O)(=O)c2ccc3c(c2)CCCN3C(=O)C2CCC2)c1 | inactive: 72% |
| Cc1cc(C(=O)NCc2ccc(C(=O)O)o2)c(C)o1 | active: 58% |
| Cc1ccc(C2c3[nH]c4ccccc4c3CCN2C(=O)CSc2ccccc2)cc1 (stereo unspecified) | inactive: 69% |
| CCOC(=O)CSc1nc2c(C)ccc(C)c2cc1C#N | inactive: 69% |
